Reference: the supplement of paper PMC11417369
± gives the standard deviation of the averaged measurements. Some of the results follow.

What follows are sequences tested on PfAP2-LT AP2 domain (GST-tagged) (assay: gcPBM binding intensity (ln(normalized median fluorescence intensity)); higher = stronger DNA binding).
In short: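 After 1 h on an Agilent 4 × 180k array of primer-extended double-stranded 36-bp intergenic genomic probes and negative controls, bound GST-tagged P. falciparum DNA-binding domains were detected with Alexa488 anti-GST antibody and scanned at 488 nm. The domains had been expressed in E. coli, and binding took place in 1× PBS with 1% milk, 0.2 mg/ml BSA, 0.5% salmon testes DNA and 0.03% Triton X-100. Binding intensity is the highest Masliner-normalised natural-log median intensity across replicate spots of either probe orientation.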

| Sequence | gcPBM binding intensity (ln) |
| --- | --- |
| TTACATGTAAAAGGTACACACATTATGTATACAAAT [CACACA_site1117] | 9.24 ± 0.4 |
| TTTTTTTTTTTTTTTTGTCCGTACTGCTTTGTGTTT [XGTACX_site3687] | 8.84 ± 0.52 |
| ATGATAAACATGGATACACACATATAGATTGCATAT [CACACA_site6843] | 9.21 ± 0.41 |
| TTCATCTTAAAATTGGGTACATAACACAAAGTATAA [XGTACX_site1894] | 8.45 ± 0.45 |
| ATATATATTAACAATACACACGTGTATACCTTATTG [CACACA_site5258] | 9.35 ± 0.39 |
| TTATTAAATTCATAAGTGCATTTATGATTAATTTTT [GTGCAC_site9749] | 8.55 ± 0.48 |
| ATTTCTCTATCGTAATGTACATAAAAAAGAAAAACA [XGTACX_site6374] | 8.56 ± 0.47 |
| AAACTTAATATCGGTACACACACAAGATAAGAATTA [CACACA_site8200] | 9.41 ± 0.41 |
| AATACATACAGACACACACACACATATATATATATA [CACACA_site3558] | 10.36 ± 0.014 |
| CACATACACCCATACACACACATATATATTAAGATA [CACACA_site4459] | 9.57 ± 0.38 |
| CTATAAATATTTTATTGTACACACTTTTTATGAATG [XGTACX_site6711] | 8.92 ± 0.38 |
| ATATATATATAGTGCACACTTAAGAATATAAAGAGG [CACACA_site1151] | 9.12 ± 0.4 |
| AAAATTTTTAGTTATACACACAACATAGAAAATATT [CACACA_site328] | 8.85 ± 0.43 |
| TTTGATCGATGGATTTAACACACAAAAAAAAAAAAA [CACACA_site9279] | 8.72 ± 0.46 |
| CTTAATTTAATGAAATGTACATATAAAAATATTATA [XGTACX_site3303] | 8.41 ± 0.4 |
| GTAAGAAACAGACACACACACATATATATATATATA [CACACA_site794] | 10.21 ± 0.064 |
| GAACAGTTTGTTTAGTGTACTTTTTTTTTTTTTTTT [XGTACX_site8881] | 8.62 ± 0.34 |
| AATAATTTTATCGGTACACACTGTATGCATAATATT [CACACA_site4364] | 9.15 ± 0.38 |
| CCTATAAATGCATTCACACATATATATTTATATTAT [CACACA_site6086] | 8.9 ± 0.35 |
| TCAAAAATAAAGATCACACATATATATATATATATA [CACACA_site4381] | 9.8 ± 0.11 |
| ATGTACAAAATAAGCACACACAAAAAAAAAAAAAAT [CACACA_site2998] | 9.58 ± 0.48 |
| TCTAATTACAAAAACATACACACAAAAAAAAAAAAA [CACACA_site3783] | 8.99 ± 0.48 |

| Sequence | gcPBM binding intensity (ln) |
| --- | --- |
| AAAAAAAAAAAAAAAGCACACACACCGATGTGTATA [CACACA_site8224] | 9.94 ± 0.16 |
| TATATATATATACCTTGTACTTACATTCGCATATAA [XGTACX_site2466] | 9.39 ± 0.28 |
| ACATAAATATATGACACACACACATATTATATATAT [CACACA_site3065] | 9.76 ± 0.23 |
| GTATAATTATGTGCACGTACATATTTTATTATATAT [XGTACX_site8586] | 9.2 ± 0.39 |
| CCATTACCATATAAAACACACAAACATACATACATA [CACACA_site5952] | 9.14 ± 0.38 |
| TATTTATATTTATACACACACACAAAAAAAAAAAAA [CACACA_site6817] | 9.33 ± 0.31 |
| TTGTTTTCTTTTTCTTTTCTTTTTCTTTTTTCTTTT [GTGCAC_negctrl_site629] | 8.61 ± 0.68 |
| TATATATATATAAAGACACACATCTATAGAATGTTA [CACACA_site2557] | 8.79 ± 0.32 |
| TTTATGACTTGAAAAAGTACACATATATTTATGCAA [XGTACX_site5451] | 8.54 ± 0.47 |
| AATATAGAAATAAATATATCACATTTGTGTTTAAAC [XGTACX_negctrl_site68] | 8.61 ± 0.42 |
| TACCAAATTTATTCTTGTACATATATATATATATAT [XGTACX_site4832] | 9.435 ± 0.064 |
| ATATATATTTATAGGTGTACAAAATACTATTTTAGG [XGTACX_site8499] | 8.6 ± 0.46 |
| AAAAGGAAAAATATCACACATATATATATATATATA [CACACA_site5586] | 9.76 ± 0.45 |
| AATAAGTAACAAAATACACACATATAGGTAATTATA [CACACA_site6949] | 9.29 ± 0.43 |
| ATTATTATACACAAATGTACATGTGAATTTTTTTTC [XGTACX_site6982] | 8.72 ± 0.45 |
| ATATGTTCCGAAGGTTGTACACACATAGAAATATAC [XGTACX_site8227] | 9.22 ± 0.32 |
| AAAATATATACAATATGTACATATATATATATATAT [XGTACX_site1898] | 9.675 ± 0.092 |
| TTACCCATTCCCTTTACATGCAATTTGTATTAATAA [TGCATGCA_site412] | 8.79 ± 0.43 |
| GTACGTTAGATATATACACACATACATAATAAAGAA [CACACA_site7327] | 9.28 ± 0.5 |
| TTAATTCTACTTATTACACACATATTAAGCAAAAAT [CACACA_site4921] | 8.7 ± 0.41 |
| TTGTCATTATTATATTGTACAATAAGTATTAAAGAA [XGTACX_site1205] | 8.62 ± 0.38 |
| TATATATATTCTTTGTGTACTCATATAAGGGTAGAA [XGTACX_site8121] | 8.59 ± 0.38 |
